In publication PMC5426369:
These are yes or no findings as the source states them, for the method shown. Binding seen in cells or lysates may run through a third protein. Some results given as binding are weak or reduced against the parent protein; the word gives no strength.

Amino acid sequences for entries named in this document (tags omitted).
UniProt P11275: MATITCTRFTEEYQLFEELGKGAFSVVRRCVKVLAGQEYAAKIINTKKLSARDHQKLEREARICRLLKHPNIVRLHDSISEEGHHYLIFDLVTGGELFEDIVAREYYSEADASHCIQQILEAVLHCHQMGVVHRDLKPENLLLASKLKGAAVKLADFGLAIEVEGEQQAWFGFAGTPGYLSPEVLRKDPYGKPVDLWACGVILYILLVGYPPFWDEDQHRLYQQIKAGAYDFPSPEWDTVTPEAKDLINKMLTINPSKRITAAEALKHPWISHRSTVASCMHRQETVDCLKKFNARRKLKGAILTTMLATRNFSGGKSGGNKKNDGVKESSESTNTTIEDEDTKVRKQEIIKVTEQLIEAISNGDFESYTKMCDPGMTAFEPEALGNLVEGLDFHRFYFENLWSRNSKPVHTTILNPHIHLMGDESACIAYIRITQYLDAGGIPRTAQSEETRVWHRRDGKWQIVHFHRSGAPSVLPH
UniProt P08413: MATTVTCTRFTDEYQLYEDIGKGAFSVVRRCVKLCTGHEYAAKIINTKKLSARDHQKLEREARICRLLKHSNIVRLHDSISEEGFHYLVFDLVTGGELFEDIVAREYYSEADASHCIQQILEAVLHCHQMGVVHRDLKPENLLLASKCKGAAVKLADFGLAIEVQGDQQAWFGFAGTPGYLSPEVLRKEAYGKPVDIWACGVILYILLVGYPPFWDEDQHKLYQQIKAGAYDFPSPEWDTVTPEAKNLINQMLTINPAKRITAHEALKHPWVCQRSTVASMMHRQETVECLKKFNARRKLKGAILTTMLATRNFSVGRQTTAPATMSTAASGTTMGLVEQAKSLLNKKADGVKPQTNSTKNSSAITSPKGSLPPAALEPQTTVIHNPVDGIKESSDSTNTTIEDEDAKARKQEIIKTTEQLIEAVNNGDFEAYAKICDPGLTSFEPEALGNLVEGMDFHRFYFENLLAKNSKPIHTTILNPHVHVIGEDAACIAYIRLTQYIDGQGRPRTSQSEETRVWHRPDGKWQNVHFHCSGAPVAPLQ

Columns and labels:
[1] = biological target: T1, dynamin 2, endogenous (rat (endogenous in dentate gyrus)) (UniProt P39052); experiment: co-IP; native proteins from rat dentate gyrus lysate (HFS-treated, contralateral control or naive); antibody on protein G-agarose or protein A/G magnetic beads, 4°C, 20 mM Hepes pH 7.4, 137 mM NaCl, 1 mM EDTA, 0.5% NP-40, 20 mM NEM; immunoblot
T1 sequence: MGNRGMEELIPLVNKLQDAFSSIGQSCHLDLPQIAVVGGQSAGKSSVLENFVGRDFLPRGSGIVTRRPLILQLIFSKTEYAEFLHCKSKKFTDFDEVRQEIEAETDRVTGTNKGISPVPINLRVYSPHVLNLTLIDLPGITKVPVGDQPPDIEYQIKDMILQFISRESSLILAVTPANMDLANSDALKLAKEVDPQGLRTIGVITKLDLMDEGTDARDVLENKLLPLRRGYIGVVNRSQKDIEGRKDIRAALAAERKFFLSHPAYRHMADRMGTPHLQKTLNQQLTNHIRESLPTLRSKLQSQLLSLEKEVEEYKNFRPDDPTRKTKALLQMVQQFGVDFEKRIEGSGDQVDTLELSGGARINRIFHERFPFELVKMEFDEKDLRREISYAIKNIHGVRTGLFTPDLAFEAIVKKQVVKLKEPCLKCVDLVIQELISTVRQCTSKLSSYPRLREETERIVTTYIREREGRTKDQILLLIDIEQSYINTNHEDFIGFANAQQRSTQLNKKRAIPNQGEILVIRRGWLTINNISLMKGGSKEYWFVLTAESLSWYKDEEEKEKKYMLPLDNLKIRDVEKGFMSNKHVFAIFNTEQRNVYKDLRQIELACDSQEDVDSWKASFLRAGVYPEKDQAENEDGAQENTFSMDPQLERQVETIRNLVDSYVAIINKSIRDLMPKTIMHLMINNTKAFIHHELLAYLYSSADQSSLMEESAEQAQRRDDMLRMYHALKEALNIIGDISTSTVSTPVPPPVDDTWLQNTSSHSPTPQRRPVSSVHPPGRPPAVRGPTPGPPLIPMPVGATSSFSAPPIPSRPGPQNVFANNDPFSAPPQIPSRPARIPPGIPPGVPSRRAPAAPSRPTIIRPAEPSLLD

[2] = biological target: calcium/calmodulin-dependent protein kinase II-alpha (CaMKIIα), endogenous (rat (endogenous in dentate gyrus)) (UniProt P11275); experiment: as above
[3] = biological target: T2, drebrin A, endogenous (rat (endogenous in dentate gyrus)) (UniProt Q07266); experiment: as above
T2 sequence: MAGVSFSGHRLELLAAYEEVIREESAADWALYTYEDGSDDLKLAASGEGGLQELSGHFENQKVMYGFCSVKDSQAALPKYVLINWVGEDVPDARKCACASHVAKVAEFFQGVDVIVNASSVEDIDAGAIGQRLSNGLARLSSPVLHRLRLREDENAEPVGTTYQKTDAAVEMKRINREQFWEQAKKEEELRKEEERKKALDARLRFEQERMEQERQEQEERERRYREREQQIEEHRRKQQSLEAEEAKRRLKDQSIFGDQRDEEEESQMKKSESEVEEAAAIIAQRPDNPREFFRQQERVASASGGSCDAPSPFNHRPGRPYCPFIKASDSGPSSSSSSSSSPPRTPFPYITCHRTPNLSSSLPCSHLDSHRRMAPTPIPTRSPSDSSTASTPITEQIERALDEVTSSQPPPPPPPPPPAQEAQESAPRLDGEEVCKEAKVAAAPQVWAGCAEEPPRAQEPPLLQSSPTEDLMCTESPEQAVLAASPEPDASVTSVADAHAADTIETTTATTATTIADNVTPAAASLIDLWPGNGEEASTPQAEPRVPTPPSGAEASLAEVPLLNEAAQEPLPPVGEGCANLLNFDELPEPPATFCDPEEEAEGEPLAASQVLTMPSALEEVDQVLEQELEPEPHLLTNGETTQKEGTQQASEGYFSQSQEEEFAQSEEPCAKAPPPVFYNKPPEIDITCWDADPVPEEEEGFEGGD

[4] = biological target: calcium/calmodulin-dependent protein kinase II-beta (CaMKIIβ), endogenous (rat (endogenous in dentate gyrus)) (UniProt P08413); experiment: as above
[5] = biological target: T2, drebrin A, endogenous (rat (endogenous in dentate gyrus)); experiment: co-IP; native proteins from pooled rat dentate gyrus cytoskeletal fractions (subcellular fractionation kit; HFS-treated and control); immunoblot
[6] = biological target: T3, Activity-regulated cytoskeleton-associated protein (Arc), unmodified 50 kDa, endogenous (rat (endogenous in dentate gyrus)) (UniProt Q63053); experiment: as above
T3 sequence: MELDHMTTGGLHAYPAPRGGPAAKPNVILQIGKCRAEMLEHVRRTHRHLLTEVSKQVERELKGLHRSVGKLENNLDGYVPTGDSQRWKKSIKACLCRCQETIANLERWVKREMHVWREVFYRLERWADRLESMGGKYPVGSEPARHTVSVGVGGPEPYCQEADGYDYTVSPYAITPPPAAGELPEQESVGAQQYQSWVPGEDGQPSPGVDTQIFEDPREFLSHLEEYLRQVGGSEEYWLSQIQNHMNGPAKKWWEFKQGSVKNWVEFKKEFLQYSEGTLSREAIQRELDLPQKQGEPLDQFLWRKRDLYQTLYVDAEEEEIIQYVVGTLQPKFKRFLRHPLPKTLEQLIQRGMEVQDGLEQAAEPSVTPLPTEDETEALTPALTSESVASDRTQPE

[7] = biological target: T3, Activity-regulated cytoskeleton-associated protein (Arc), unmodified 50 kDa, endogenous (rat (endogenous in dentate gyrus)); experiment: co-IP; native proteins from rat dentate gyrus lysate (HFS-treated, contralateral control or naive); antibody on protein G-agarose or protein A/G magnetic beads, 4°C, 20 mM Hepes pH 7.4, 137 mM NaCl, 1 mM EDTA, 0.5% NP-40, 20 mM NEM; immunoblot
[8] = biological target: calcium/calmodulin-dependent protein kinase II-beta (CaMKIIβ), endogenous (rat (endogenous in dentate gyrus)), P08413; experiment: as above; conditions: remark: other sources report otherwise

B1: Activity-regulated cytoskeleton-associated protein (Arc), unmodified 50 kDa, endogenous (protein, UniProt Q63053 1-396)
chain: MELDHMTTGGLHAYPAPRGGPAAKPNVILQIGKCRAEMLEHVRRTHRHLLTEVSKQVERELKGLHRSVGKLENNLDGYVPTGDSQRWKKSIKACLCRCQETIANLERWVKREMHVWREVFYRLERWADRLESMGGKYPVGSEPARHTVSVGVGGPEPYCQEADGYDYTVSPYAITPPPAAGELPEQESVGAQQYQSWVPGEDGQPSPGVDTQIFEDPREFLSHLEEYLRQVGGSEEYWLSQIQNHMNGPAKKWWEFKQGSVKNWVEFKKEFLQYSEGTLSREAIQRELDLPQKQGEPLDQFLWRKRDLYQTLYVDAEEEEIIQYVVGTLQPKFKRFLRHPLPKTLEQLIQRGMEVQDGLEQAAEPSVTPLPTEDETEALTPALTSESVASDRTQPE
For B1, the binding [1] was “binds”, the binding [2] was “binds” and the binding [3] was “binds”. For the same binder, the binding [4] was “binds” and the binding [5] was “binds”.

B2: drebrin A, endogenous (protein, UniProt Q07266 1-707)
chain: MAGVSFSGHRLELLAAYEEVIREESAADWALYTYEDGSDDLKLAASGEGGLQELSGHFENQKVMYGFCSVKDSQAALPKYVLINWVGEDVPDARKCACASHVAKVAEFFQGVDVIVNASSVEDIDAGAIGQRLSNGLARLSSPVLHRLRLREDENAEPVGTTYQKTDAAVEMKRINREQFWEQAKKEEELRKEEERKKALDARLRFEQERMEQERQEQEERERRYREREQQIEEHRRKQQSLEAEEAKRRLKDQSIFGDQRDEEEESQMKKSESEVEEAAAIIAQRPDNPREFFRQQERVASASGGSCDAPSPFNHRPGRPYCPFIKASDSGPSSSSSSSSSPPRTPFPYITCHRTPNLSSSLPCSHLDSHRRMAPTPIPTRSPSDSSTASTPITEQIERALDEVTSSQPPPPPPPPPPAQEAQESAPRLDGEEVCKEAKVAAAPQVWAGCAEEPPRAQEPPLLQSSPTEDLMCTESPEQAVLAASPEPDASVTSVADAHAADTIETTTATTATTIADNVTPAAASLIDLWPGNGEEASTPQAEPRVPTPPSGAEASLAEVPLLNEAAQEPLPPVGEGCANLLNFDELPEPPATFCDPEEEAEGEPLAASQVLTMPSALEEVDQVLEQELEPEPHLLTNGETTQKEGTQQASEGYFSQSQEEEFAQSEEPCAKAPPPVFYNKPPEIDITCWDADPVPEEEEGFEGGD
With B2 the binding [2] was “no binding” and the binding [6] was “binds”.

B3: dynamin 2, endogenous (protein, UniProt P39052 1-870)
chain: MGNRGMEELIPLVNKLQDAFSSIGQSCHLDLPQIAVVGGQSAGKSSVLENFVGRDFLPRGSGIVTRRPLILQLIFSKTEYAEFLHCKSKKFTDFDEVRQEIEAETDRVTGTNKGISPVPINLRVYSPHVLNLTLIDLPGITKVPVGDQPPDIEYQIKDMILQFISRESSLILAVTPANMDLANSDALKLAKEVDPQGLRTIGVITKLDLMDEGTDARDVLENKLLPLRRGYIGVVNRSQKDIEGRKDIRAALAAERKFFLSHPAYRHMADRMGTPHLQKTLNQQLTNHIRESLPTLRSKLQSQLLSLEKEVEEYKNFRPDDPTRKTKALLQMVQQFGVDFEKRIEGSGDQVDTLELSGGARINRIFHERFPFELVKMEFDEKDLRREISYAIKNIHGVRTGLFTPDLAFEAIVKKQVVKLKEPCLKCVDLVIQELISTVRQCTSKLSSYPRLREETERIVTTYIREREGRTKDQILLLIDIEQSYINTNHEDFIGFANAQQRSTQLNKKRAIPNQGEILVIRRGWLTINNISLMKGGSKEYWFVLTAESLSWYKDEEEKEKKYMLPLDNLKIRDVEKGFMSNKHVFAIFNTEQRNVYKDLRQIELACDSQEDVDSWKASFLRAGVYPEKDQAENEDGAQENTFSMDPQLERQVETIRNLVDSYVAIINKSIRDLMPKTIMHLMINNTKAFIHHELLAYLYSSADQSSLMEESAEQAQRRDDMLRMYHALKEALNIIGDISTSTVSTPVPPPVDDTWLQNTSSHSPTPQRRPVSSVHPPGRPPAVRGPTPGPPLIPMPVGATSSFSAPPIPSRPGPQNVFANNDPFSAPPQIPSRPARIPPGIPPGVPSRRAPAAPSRPTIIRPAEPSLLD
B3 was tested, and the binding [7] was “binds”.

B4: drebrin A, endogenous, Q07266 1-707 (protein)
chain: MAGVSFSGHRLELLAAYEEVIREESAADWALYTYEDGSDDLKLAASGEGGLQELSGHFENQKVMYGFCSVKDSQAALPKYVLINWVGEDVPDARKCACASHVAKVAEFFQGVDVIVNASSVEDIDAGAIGQRLSNGLARLSSPVLHRLRLREDENAEPVGTTYQKTDAAVEMKRINREQFWEQAKKEEELRKEEERKKALDARLRFEQERMEQERQEQEERERRYREREQQIEEHRRKQQSLEAEEAKRRLKDQSIFGDQRDEEEESQMKKSESEVEEAAAIIAQRPDNPREFFRQQERVASASGGSCDAPSPFNHRPGRPYCPFIKASDSGPSSSSSSSSSPPRTPFPYITCHRTPNLSSSLPCSHLDSHRRMAPTPIPTRSPSDSSTASTPITEQIERALDEVTSSQPPPPPPPPPPAQEAQESAPRLDGEEVCKEAKVAAAPQVWAGCAEEPPRAQEPPLLQSSPTEDLMCTESPEQAVLAASPEPDASVTSVADAHAADTIETTTATTATTIADNVTPAAASLIDLWPGNGEEASTPQAEPRVPTPPSGAEASLAEVPLLNEAAQEPLPPVGEGCANLLNFDELPEPPATFCDPEEEAEGEPLAASQVLTMPSALEEVDQVLEQELEPEPHLLTNGETTQKEGTQQASEGYFSQSQEEEFAQSEEPCAKAPPPVFYNKPPEIDITCWDADPVPEEEEGFEGGD
With B4 the binding [8] was “no binding”.
